Here are results for two molecules from publication PMC3538594 (PLoS ONE, 2013).

For the assay, the target named is recombinant complex II (Thermus thermophilus, UniProt Q5SIC0). The assay can be described thus: EPR signal of the [2Fe-2S] cluster (axial/rhombic transition). Further details: species or system T. thermophilus. The note with it: in the presence of 20 mM succinate, 6 µM rcII sample. Here is the method:
EPR spectra were recorded on a Bruker ElexSys X-band spectrometer fitted with an Oxford Instrument He-cryostat and temperature control system. Buffers used were either 50 mM MOPS at pH 7 or a mixture of 100 mM MOPS and 100 mM piperazine for the pH experiments. […] Additions of reducing agents were performed at room temperature followed by vortexing and freezing of the sample in liquid nitrogen within 5 min after addition.
Figure 5 Influence of redox mediators, buffer and inhibitors on EPR spectra of the recombinant complex II. […] The spectrum labeled ‘asc’ was obtained on a sample reduced by 5 mM ascorbate, ‘malate’ by addition of 20 mM malate, ‘dith’ by addition of 1 mM dithionite. Vertical lines indicate the position of the gx-signal. Spectra were recorded at a temperature of 50 K, microwave power of 64 mW and a modulation amplitude of 1 mT.
Protein concentration was 10 µM. Spectra were recorded at a temperature of 50 K, microwave power of 64 mW and a modulation amplitude of 1 mT.

Molecules are shown by their SMILES.

Take `O=C1C=CC(=O)c2ccccc21` [1,4-NQ, 1,4-naphthoquinone]: the “concentration sufficient to obtain the axial signal” value is reported as 10 µM. On to `O=C1C=CC(=O)C=C1` [p-BQ, p-benzoquinone], for which the “concentration sufficient to obtain the axial signal” value was found to be 20 µM.
